Where “and” joins values, the source holds several entries; their conditions need not be identical. Equal values may be shown once. This list was built around the results that the source calls inconclusive (neither active nor inactive); the mix of calls is not that of the screen. For some assays here: Where the call is inconclusive, the potency comes from a doubtful curve fit. For some assays here: “Side channel” marks fits to a control or component signal instead of the main read-out. Calls of active or inactive are those of the source. Unless noted, the call rests on the fitted dose curve.
biological target: Retinoic acid receptor RXR-alpha (Homo sapiens) (UniProt P19793); test: qHTS assay for small molecule antagonists of retinoid X receptor alpha signaling (AID 588546; active means well fitted inhibition curve with a large enough effect in the signal ratio, with a control signal flat, not every such curve was filed as active; inconclusive means small, poorly fitted or top-dose-only effect, or effect the other way, or a change in a side signal; inactive means no such curve, though single readings can be large or run the other way; the % refers to the signal ratio; further: potency means the concentration at half of the fitted maximal effect;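 on max response: cells stimulated with 9-cis-retinoic acid as agonist; on the % scale 0 is the no-effect control and ±100 the full control effect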); conditions: HEK293T RXRa-UAS-bla, beta-lactamase ratio, antagonist mode
Method in brief: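 Beta-lactamase reporter inhibition, read as CCF4 fluorescence ratio (ex 405, em 460/530 nm) after 2 h at RT. HEK293T UAS-bla cells, 2500/well, were stimulated with 9-cis-RA at 500 or 100 nM final alongside test compound for 18 h at 37 C.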
Tags describe the fitted curve by direction and shape or compound fluorescence and quenching.

Sequence of UniProt P19793 (P19793 whole entry, looked up): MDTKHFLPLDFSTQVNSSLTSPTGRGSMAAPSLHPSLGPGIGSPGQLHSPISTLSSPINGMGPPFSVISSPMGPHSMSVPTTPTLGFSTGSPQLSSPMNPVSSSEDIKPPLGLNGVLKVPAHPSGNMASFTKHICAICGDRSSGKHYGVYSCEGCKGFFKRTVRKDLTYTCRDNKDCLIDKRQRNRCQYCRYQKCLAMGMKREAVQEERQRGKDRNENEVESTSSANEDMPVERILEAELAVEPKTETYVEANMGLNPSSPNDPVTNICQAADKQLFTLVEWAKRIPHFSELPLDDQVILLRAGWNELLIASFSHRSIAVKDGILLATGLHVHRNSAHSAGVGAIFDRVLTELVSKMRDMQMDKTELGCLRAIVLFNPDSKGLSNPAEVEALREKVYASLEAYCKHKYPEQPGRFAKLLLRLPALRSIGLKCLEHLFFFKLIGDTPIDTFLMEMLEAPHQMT

Row | SMILES | max response | Potency
1 | Brc1cc(Br)c(Oc2cc(Br)c(Br)cc2Br)cc1Br | inconclusive: -23.4% | 
2 | CCNc1ccccc1 | inconclusive: -2.6% | 
3 | O=C(O)CN(CC(=O)O)CC(=O)O | inconclusive: -7.9% | 
4 | C[Si](C)(C)Cl | inactive: 16.7% | 
5 | O=C(O)c1cc(N=Nc2ccc([N+](=O)[O-])cc2)ccc1O |  | inconclusive: 28.2 µM [side channel, rising, partial curve, poor fit]
6 | c1ccc2c(c1)ccc1ccccc12 |  | inconclusive: 50.1 µM [activator, single point]
7 | Nc1ccc(N=Nc2ccccc2)c(N)c1 | inactive: -15% | 

biological target: Thyroid hormone receptor beta (Homo sapiens) (UniProt P10828); test: qHTS assay for small molecule antagonists of thyroid hormone receptor beta signaling (AID 588547; active means well fitted inhibition curve with a large enough effect in the signal ratio, with a control signal flat, not every such curve was filed as active; inconclusive means small, poorly fitted or top-dose-only effect, or effect the other way, or a change in a side signal; the % refers to the signal ratio; further: potency means the concentration at half of the fitted maximal effect;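 on activity change % (negative = inhibition): cells stimulated with 0.4 nM T3 agonist during compound exposure; on the % scale 0 is the no-effect control and ±100 the full control effect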); conditions: TR-UAS-bla HEK293, beta-lactamase ratio, antagonist mode, 18 h
Method in brief: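 TR-UAS-bla GripTite HEK293 cells in 2% charcoal/dextran FBS medium were preincubated 4 h at 37 C, given compound (0.59 nM to 92 uM) plus 0.4 nM T3 (final) for 18 h, then CCF4 for 2 h at RT; Hill fit gave IC50.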

Sequence of UniProt P10828 (P10828 whole entry, looked up): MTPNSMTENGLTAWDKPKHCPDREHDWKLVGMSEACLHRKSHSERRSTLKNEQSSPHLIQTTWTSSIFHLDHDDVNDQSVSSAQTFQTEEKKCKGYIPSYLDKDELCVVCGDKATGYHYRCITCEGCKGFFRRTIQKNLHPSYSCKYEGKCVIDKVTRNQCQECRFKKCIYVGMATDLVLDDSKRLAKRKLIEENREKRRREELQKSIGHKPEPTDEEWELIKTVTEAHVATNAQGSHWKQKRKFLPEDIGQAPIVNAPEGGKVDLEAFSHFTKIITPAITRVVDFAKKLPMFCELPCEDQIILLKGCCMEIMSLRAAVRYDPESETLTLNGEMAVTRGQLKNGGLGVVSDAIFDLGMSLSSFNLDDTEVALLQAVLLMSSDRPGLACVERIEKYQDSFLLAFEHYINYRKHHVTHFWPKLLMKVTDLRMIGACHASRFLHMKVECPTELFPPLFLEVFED

Row | SMILES | activity change % (negative = inhibition) | Potency
8 | OC1CCCCC1 | inactive: 4.86% | 
9 | Nc1ccc2c(c1)C(=O)c1ccccc1C2=O |  | inconclusive: 0.0447 µM [cytotoxic, side channel, full curve, poor fit]
10 | CN(C)c1ccc(Cc2ccc(N(C)C)cc2)cc1 | inconclusive: 19.8% | 
11 | O=C(O)c1cc(N=Nc2ccc([N+](=O)[O-])cc2)ccc1O | inactive: 12.8% | 
12 | c1ccc2c(c1)ccc1ccccc12 | inconclusive: 13.9% | 
13 | C=C(C)C1CC=C(C)C(OC(C)=O)C1 (stereo unspecified) | inconclusive: -1.53% | 

system: not listed separately; test: qHTS assay for small molecule agonists of the antioxidant response element (ARE) signaling pathway (AID 651741; active means well fitted activation curve with a large enough effect in the signal ratio; inconclusive means small, poorly fitted or top-dose-only effect, or effect the other way, or a change in a side signal; the % refers to the signal ratio; further: potency means the concentration at half of the fitted maximal effect; on activation: % of control where 0% means no effect); conditions: HepG2 ARE-bla reporter, beta-lactamase FRET ratio, 16 h; activation: at 96 µM (top of the series) unless noted
Method in brief: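 Reporter: beta-lactamase under ARE, stably in HepG2. Exposure: 16 h, 37 C, compounds delivered in DMSO by pin tool after 5 h cell preincubation. Readout: FRET substrate fluorescence after 2 h at RT.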

Row | SMILES | Potency | activation
14 | CC(C)COC(=O)COc1cc(Cl)c(Cl)cc1Cl | active: 42.2 µM | 
15 | CCNc1ccccc1 | inconclusive: 75 µM [activator, partial curve] | 
16 | O=c1[nH]ncc2ccccc12 |  | inactive: 4.76%
17 | c1cc2c3c(c1)ccc1cccc(c13)C2 | inconclusive: 66.8 µM [activator, single point] | 
18 | OC1CCCCC1 |  | inactive: 5.67%
19 | C/C(Cl)=C/CCl | inconclusive: 29.8 µM [cytotoxic, side channel, partial curve, poor fit] | 
20 | O=C(O)CN(CC(=O)O)CC(=O)O | inconclusive: 54.5 µM [activator, partial curve] | inconclusive: 9.02%
21 | C[Si](C)(C)Cl |  | inconclusive: 8.67%
22 | CC(=O)OC(C(=O)c1ccccc1)c1ccccc1 (stereo unspecified) |  | inconclusive: 6.48%
23 | O=C(O)c1cc(N=Nc2ccc([N+](=O)[O-])cc2)ccc1O | inconclusive: 75 µM [activator, single point] | 
24 | CC=C(Cl)Cl |  | inconclusive: 9.76%
25 | c1ccc2c(c1)ccc1ccccc12 | inconclusive: 75 µM [activator, single point] | 
26 | CC(C)OCC1CO1 (stereo unspecified) |  | inactive: 1.74%
27 | Nc1ccc(N=Nc2ccccc2)c(N)c1 | active: 42.2 µM | 
28 | CC(=O)c1ccc(Cl)c(Cl)c1Cl | inconclusive: 53.1 µM [activator, partial curve, poor fit] | 
29 | CCC(Cl)CC(Cl)C(Cl)C(Cl)C(Cl)C(C)Cl (stereo unspecified) | active: 66.8 µM | 
30 | Cc1cc2nc(N)sc2cc1C | inconclusive: 75 µM [side channel, falling, partial curve, poor fit] | 
31 | Cc1ccc(C(=O)O)cc1[N+](=O)[O-] |  | inconclusive: 9.84%
32 | C=C(C)C1CC=C(C)C(OC(C)=O)C1 (stereo unspecified) | inconclusive: 66.8 µM [activator, partial curve, poor fit] | 
33 | C1CCCNCC1 |  | inactive: 4.18%
34 | c1ccc(SCCSc2ccccc2)cc1 | inconclusive: 75 µM [activator, partial curve, poor fit] | 
35 | O=[N+]([O-])c1ccccc1Nc1ccccc1 | inconclusive: 42.2 µM [activator, single point] | 

system: not listed separately; test: qHTS assay for small molecule disruptors of the mitochondrial membrane potential - 5 hr assay (AID 651755); conditions: JC-1-type ratio dye; ratio change, negative = disruption: at 92.2 µM (top of the series); further: nearly all actives have a fitted effect of over 40% in size; further: potency means the concentration at half of the fitted maximal effect; on ratio change, negative = disruption: on the % scale 0 is the no-effect control and ±100 the full control effect
Method in brief: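 Seed HepG2 overnight, add compound, incubate 5 hr at 37C and 5% CO2, stain 30 min with Mito-MPS, then measure monomer (490/535 nm) and aggregate (540/590 nm) fluorescence.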

Row | SMILES | Potency | ratio change, negative = disruption
36 | CC(C)COC(=O)COc1cc(Cl)c(Cl)cc1Cl | inconclusive: 39.8 µM [side channel, rising, partial curve] | 
37 | CN(C)c1ccc(Cc2ccc(N(C)C)cc2)cc1 |  | inconclusive: -30.1%
38 | O=C(O)c1cc(N=Nc2ccc([N+](=O)[O-])cc2)ccc1O | inconclusive: 37.6 µM [inhibitor, partial curve] | 
39 | Nc1ccc(N=Nc2ccccc2)c(N)c1 | active: 10.6 µM | 

biological target: Tumor necrosis factor (Homo sapiens) (UniProt P01375); test: qHTS assay to identify small molecules that stimulate Tumor Necrosis Factor-alpha (TNF-alpha) secretion (AID 651757; active means well fitted curve in the direction sought with a large enough effect in the signal ratio; inconclusive means small, poorly fitted or top-dose-only effect, or a change in a side signal; inactive means no such curve, though single readings can be large or run the other way; the % refers to the signal ratio; further: 0% is about no effect); conditions: Human cells, HTRF 665/615 ratio; activation (TNF-alpha secretion): at 92.2 µM (top of the series)
Method in brief: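 Secreted TNF-alpha quantified by TR-FRET sandwich of two labeled anti-TNF-alpha antibodies, incubated 3 hr at room temperature. Preceded by 17 hr, 37 C compound treatment of THP-1 cells at 3000 cells/well.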

Sequence of UniProt P01375 (P01375 whole entry, looked up): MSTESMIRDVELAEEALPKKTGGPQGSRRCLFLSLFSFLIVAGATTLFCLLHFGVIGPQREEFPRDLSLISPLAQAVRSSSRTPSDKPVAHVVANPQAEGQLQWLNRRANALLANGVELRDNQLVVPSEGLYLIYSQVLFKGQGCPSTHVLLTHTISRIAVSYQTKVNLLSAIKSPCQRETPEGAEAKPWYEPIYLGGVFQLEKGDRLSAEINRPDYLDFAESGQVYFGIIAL

Row | SMILES | activation (TNF-alpha secretion)
40 | CC(C)COC(=O)COc1cc(Cl)c(Cl)cc1Cl | inconclusive: 5.18%
41 | Nc1ccc2c(c1)C(=O)c1ccccc1C2=O | inconclusive: 0.246%
42 | CN(C)c1ccc(Cc2ccc(N(C)C)cc2)cc1 | inconclusive: 0.849%
43 | O=C(/C=C/c1ccc(O)c(O)c1)OC1C[C@](O)(C(=O)O)C[C@@H](O)[C@H]1O (stereo partly specified) | inconclusive: 1.16% and inconclusive: 0.6%
44 | CC(C)OCC1CO1 (stereo unspecified) | inactive: 0.286%
45 | Nc1ccc(N=Nc2ccccc2)c(N)c1 | inconclusive: 0.0794%
46 | c1ccc(SCCSc2ccccc2)cc1 | inactive: 0.661%

system: not listed separately; test: qHTS assay to identify small molecules that stimulate interleukin-8 (IL-8) secretion (AID 651758; active means well fitted activation curve with a large enough effect in the signal ratio; inconclusive means small, poorly fitted or top-dose-only effect, or effect the other way, or a change in a side signal; the % refers to the signal ratio; further: potency means the concentration at half of the fitted maximal effect; on activation: 0% is about no effect); conditions: HTRF ratio (665/615); activation: at 92.2 µM (top of the series)
Method in brief: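 Quantitative HTS in THP-1 monocytic cells at 2000 cells per well, with 16 hrs compound incubation at 37 C. IL-8 in the medium was then quantified by HTRF immunoassay, read after 1-3 hrs at room temperature.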

Row | SMILES | activation | Potency
47 | CC(C)COC(=O)COc1cc(Cl)c(Cl)cc1Cl | inactive: 11.6% | 
48 | CCNc1ccccc1 |  | inconclusive: 75 µM [activator, single point]
49 | O=c1[nH]ncc2ccccc12 | inconclusive: -17.9% | 
50 | CCOCCOCC | inconclusive: 2.98% | 
51 | c1cc2c3c(c1)ccc1cccc(c13)C2 | inactive: 8.18% | 
52 | OC1CCCCC1 | inactive: -16.7% | 
53 | C/C(Cl)=C/CCl |  | inconclusive: 75 µM [inhibitor, single point]
54 | O=C(O)CN(CC(=O)O)CC(=O)O | inconclusive: -5.15% | 
55 | Nc1ccc2c(c1)C(=O)c1ccccc1C2=O | inconclusive: -19.5% | 
56 | C[Si](C)(C)Cl | inconclusive: -23% | 
57 | C=Cc1cccc(C)c1 | inactive: 12.2% | 
58 | CN(C)c1ccc(Cc2ccc(N(C)C)cc2)cc1 | inconclusive: 7.28% | 
59 | CC(=O)OC(C(=O)c1ccccc1)c1ccccc1 (stereo unspecified) | inactive: -21.5% | 
60 | O=C(O)c1cc(N=Nc2ccc([N+](=O)[O-])cc2)ccc1O | inactive: 17.1% | 
61 | O=C(/C=C/c1ccc(O)c(O)c1)OC1C[C@](O)(C(=O)O)C[C@@H](O)[C@H]1O (stereo partly specified) |  | inconclusive: 75 µM [rising, single point]
62 | CC=C(Cl)Cl | inconclusive: -6.79% | 
63 | c1ccc2c(c1)ccc1ccccc12 |  | inconclusive: 75 µM [rising, single point]
64 | Nc1ccc(N=Nc2ccccc2)c(N)c1 | inconclusive: 11.7% | 
65 | CC(=O)c1ccc(Cl)c(Cl)c1Cl |  | inconclusive: 75 µM [activator, single point]
66 | CCC(Cl)CC(Cl)C(Cl)C(Cl)C(Cl)C(C)Cl (stereo unspecified) | inactive: -0.79% | 
67 | Cc1cc2nc(N)sc2cc1C | inconclusive: -33% | 
68 | C=C(C)C1CC=C(C)C(OC(C)=O)C1 (stereo unspecified) | inactive: -8.41% | 
69 | c1ccc(SCCSc2ccccc2)cc1 | inactive: -11.5% | 
70 | O=[N+]([O-])c1ccccc1Nc1ccccc1 | inconclusive: 11.7% | 
